Inconclusive results, whose numbers are uncertain, are shown with a selection of clear calls. For part of these data: Potencies of inconclusive entries are doubtful fits and often do not repeat. For part of these data: “Side channel” marks fits to a control or component signal instead of the main read-out. Calls of active or inactive are those of the source. Unless noted, the call rests on the fitted dose curve; in most records, active means well fitted curve in the direction sought with a large enough effect; inconclusive means small, poorly fitted or top-dose-only effect, or another doubt; inactive means no such curve, though single readings can be large; an effect the other way counts as inactive or inconclusive.
Columns and labels:
[1] = NFAT Signaling Pathway (AID 444; active means well fitted curve in either direction with a large enough effect, not every such curve was filed as active; inconclusive means small, poorly fitted or top-dose-only effect, or another doubt;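 further: carbachol stimulus at about its EC50 of 1 µM final; on the % scale 0 is the no-effect control and ±100 the full control effect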); conditions: Jurkat NFAT-bla M1, carbachol, beta-lactamase ratio, 5 h; at 17.2 µM (top of the series) unless noted
Summary of the method: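 Jurkat cells carrying an NFAT-driven β-lactamase reporter and co-transfected muscarinic M1 receptor were treated with compound plus carbachol (1 uM final, an EC50 level) for 5 h at 37 °C. CCF4 loading followed for 1 h at RT; 460/530 nm ratio gave %activity.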

[2] = target: Glucocorticoid receptor (Homo sapiens) (UniProt P04150); assay: GR-GFP Redistribution (AID 450;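 active means compounds whose dose series gives a full or clear partial fitted curve of increased nuclear translocation; inconclusive means weak partial curve or effect only at the top dose; inactive means no dose-dependent translocation response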; further: potency means the concentration at half of the fitted maximal effect); conditions: U2OS GR-GFP nuclear translocation, laser cytometry, 2 h
Sequence of UniProt P04150 (P04150 whole entry, looked up): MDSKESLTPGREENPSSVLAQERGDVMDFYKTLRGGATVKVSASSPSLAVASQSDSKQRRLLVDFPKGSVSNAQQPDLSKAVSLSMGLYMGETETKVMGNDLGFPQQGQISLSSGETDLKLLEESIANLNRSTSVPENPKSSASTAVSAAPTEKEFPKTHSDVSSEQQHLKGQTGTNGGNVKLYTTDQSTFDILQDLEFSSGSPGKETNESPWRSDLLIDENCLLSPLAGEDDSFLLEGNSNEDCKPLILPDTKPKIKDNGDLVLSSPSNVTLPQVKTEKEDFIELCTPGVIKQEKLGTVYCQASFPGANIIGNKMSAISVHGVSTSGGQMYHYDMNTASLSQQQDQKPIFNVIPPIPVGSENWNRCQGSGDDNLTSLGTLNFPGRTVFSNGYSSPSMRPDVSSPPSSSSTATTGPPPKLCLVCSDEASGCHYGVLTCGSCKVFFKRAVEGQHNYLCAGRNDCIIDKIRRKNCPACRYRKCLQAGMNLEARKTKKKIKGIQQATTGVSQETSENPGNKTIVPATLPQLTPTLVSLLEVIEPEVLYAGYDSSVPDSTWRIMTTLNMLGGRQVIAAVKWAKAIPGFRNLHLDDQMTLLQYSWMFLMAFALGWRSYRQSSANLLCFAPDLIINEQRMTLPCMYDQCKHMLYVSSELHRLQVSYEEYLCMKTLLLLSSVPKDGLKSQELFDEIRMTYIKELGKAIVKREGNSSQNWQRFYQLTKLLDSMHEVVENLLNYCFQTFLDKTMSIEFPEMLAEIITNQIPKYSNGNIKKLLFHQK

[3] = target: 3',5'-cyclic-AMP phosphodiesterase 4B (Homo sapiens) (UniProt Q07343); assay: qHTS Assay for Inhibitors of PDE-IV (AID 607; active means well fitted activation curve with a large enough effect in the main read-out, with a control signal flat, not every such curve was filed as active; inconclusive means small, poorly fitted or top-dose-only effect, or effect the other way, or a change in a side signal; further: potency means the concentration at half of the fitted maximal effect); conditions: HEK293 ACTOne CNG channel cells, membrane potential fluorescence; activation (PDE inhibition): at 22.9 µM (top of the series)
Sequence of UniProt Q07343 (Q07343 whole entry, looked up): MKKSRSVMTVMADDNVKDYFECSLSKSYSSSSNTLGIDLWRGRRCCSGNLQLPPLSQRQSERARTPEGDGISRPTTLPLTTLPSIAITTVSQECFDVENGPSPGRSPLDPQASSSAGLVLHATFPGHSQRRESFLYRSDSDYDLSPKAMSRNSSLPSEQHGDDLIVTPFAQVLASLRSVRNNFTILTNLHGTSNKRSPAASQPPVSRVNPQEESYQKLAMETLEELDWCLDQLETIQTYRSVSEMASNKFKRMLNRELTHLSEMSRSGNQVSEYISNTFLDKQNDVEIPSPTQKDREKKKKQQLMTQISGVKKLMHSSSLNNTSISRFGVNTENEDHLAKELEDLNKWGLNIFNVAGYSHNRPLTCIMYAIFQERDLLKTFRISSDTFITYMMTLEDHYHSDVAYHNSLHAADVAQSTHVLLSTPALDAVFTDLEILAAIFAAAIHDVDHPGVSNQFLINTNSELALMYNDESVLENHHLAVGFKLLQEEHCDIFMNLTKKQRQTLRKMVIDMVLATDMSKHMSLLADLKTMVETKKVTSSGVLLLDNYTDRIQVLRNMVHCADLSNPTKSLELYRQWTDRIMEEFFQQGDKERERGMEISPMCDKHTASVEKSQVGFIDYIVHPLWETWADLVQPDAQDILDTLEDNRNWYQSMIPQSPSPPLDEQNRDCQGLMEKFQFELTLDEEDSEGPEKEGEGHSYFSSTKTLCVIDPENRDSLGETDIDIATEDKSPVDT
Summary of the method: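 The readout is membrane depolarisation from a cAMP-sensing CNG channel, detected with a potential dye at ex 535/em 590. Cells were HEK293-derived (endogenous PDE-IV) at 1000 cells/well, titrated up to 22.9 uM final.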

[4] = target: Rap guanine nucleotide exchange factor 3 (Homo sapiens) (UniProt O95398); assay: Confirmatory qHTS for agonist of cAMP-regulated guanine nucleotide exchange factor 3 (EPAC1) (AID 1645881); conditions: EPAC1 Rap1B BODIPY-GDP exchange fluorescence; activation: at 154 µM (top of the series), 100% = cAMP control response; further: nearly all actives have a fitted effect of over 75% in size; further: potency means the concentration at half of the fitted maximal effect;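 on activation: EPAC1 catalysed release of BODIPY-GDP from Rap1B seen as fluorescence loss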
Sequence of UniProt O95398 (O95398 whole entry, looked up): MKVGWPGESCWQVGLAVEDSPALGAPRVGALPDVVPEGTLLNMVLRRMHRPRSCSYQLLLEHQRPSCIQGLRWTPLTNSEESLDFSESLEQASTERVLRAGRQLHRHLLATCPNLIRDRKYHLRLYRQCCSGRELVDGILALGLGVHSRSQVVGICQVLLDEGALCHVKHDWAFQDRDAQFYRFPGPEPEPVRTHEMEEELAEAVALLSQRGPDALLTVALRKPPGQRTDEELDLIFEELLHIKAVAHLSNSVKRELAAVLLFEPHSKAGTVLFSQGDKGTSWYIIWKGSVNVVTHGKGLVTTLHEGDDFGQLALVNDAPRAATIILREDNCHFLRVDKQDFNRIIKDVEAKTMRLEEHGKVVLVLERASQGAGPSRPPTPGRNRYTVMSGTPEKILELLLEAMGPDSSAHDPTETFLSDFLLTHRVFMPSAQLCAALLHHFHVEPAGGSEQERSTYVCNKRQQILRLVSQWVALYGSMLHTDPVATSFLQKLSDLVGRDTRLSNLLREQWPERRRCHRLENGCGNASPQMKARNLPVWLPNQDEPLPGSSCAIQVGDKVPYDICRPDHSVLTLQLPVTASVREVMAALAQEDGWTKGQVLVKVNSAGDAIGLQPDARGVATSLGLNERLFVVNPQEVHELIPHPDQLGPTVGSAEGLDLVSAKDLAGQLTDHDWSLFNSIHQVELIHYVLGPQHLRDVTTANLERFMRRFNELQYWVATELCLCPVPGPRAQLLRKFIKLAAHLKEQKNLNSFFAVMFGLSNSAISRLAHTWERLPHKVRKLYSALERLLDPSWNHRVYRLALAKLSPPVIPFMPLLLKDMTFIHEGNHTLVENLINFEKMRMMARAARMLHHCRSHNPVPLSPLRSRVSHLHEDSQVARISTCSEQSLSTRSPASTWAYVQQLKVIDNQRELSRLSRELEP

[5] = target: Rap guanine nucleotide exchange factor 4 (Homo sapiens) (UniProt Q8WZA2); assay: Confirmatory qHTS for agonist of cAMP-regulated guanine nucleotide exchange factor 4 (EPAC2) (AID 1645884);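 further: nucleotide exchange releases bodipy-GDP from Rap1 and this lowers its fluorescence; nearly all actives have a fitted effect of over 65% in size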; further: potency means the concentration at half of the fitted maximal effect; on activation: on the % scale 0 is the no-effect control and ±100 the full control effect
Sequence of UniProt Q8WZA2 (Q8WZA2 whole entry, looked up): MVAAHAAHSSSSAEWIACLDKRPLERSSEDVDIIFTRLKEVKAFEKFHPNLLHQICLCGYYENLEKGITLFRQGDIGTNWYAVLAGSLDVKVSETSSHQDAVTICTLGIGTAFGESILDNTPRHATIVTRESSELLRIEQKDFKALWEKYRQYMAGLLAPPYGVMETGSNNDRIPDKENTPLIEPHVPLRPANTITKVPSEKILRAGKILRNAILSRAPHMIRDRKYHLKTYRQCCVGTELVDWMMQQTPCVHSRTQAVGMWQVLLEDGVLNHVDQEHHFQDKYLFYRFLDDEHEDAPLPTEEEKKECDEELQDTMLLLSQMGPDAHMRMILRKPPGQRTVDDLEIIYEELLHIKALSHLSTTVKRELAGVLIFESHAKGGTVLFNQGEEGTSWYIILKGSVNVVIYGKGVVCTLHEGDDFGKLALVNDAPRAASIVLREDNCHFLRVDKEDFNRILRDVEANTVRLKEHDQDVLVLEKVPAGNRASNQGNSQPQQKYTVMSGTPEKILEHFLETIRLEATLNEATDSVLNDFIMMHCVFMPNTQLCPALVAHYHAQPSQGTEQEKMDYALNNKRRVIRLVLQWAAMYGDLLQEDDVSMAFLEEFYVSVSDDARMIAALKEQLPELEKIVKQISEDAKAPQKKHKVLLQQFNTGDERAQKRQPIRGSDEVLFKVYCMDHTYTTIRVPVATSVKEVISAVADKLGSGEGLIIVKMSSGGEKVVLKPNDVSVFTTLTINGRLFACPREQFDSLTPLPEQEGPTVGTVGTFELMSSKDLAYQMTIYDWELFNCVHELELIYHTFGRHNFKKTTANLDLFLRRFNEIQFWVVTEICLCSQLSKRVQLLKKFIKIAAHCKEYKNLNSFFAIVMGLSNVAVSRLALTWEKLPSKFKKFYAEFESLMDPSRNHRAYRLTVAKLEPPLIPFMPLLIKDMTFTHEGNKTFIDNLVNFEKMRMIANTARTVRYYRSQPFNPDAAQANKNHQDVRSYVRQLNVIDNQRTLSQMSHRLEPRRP

[6] = target: Rap guanine nucleotide exchange factor 4 (Homo sapiens) (UniProt Q8WZA2); assay: Confirmatory qHTS for antagonist of cAMP-regulated guanine nucleotide exchange factor 4 (EPAC2) (AID 1645885); conditions: activity change, negative = inhibition: at 12.7 µM (top of the series) unless noted; further: nearly all actives have a fitted effect of over 25% in size; further: potency means the concentration at half of the fitted maximal effect; on activity change, negative = inhibition: on the % scale 0 is the no-effect control and ±100 the full control effect
[7] = target: DNA polymerase eta (Homo sapiens) (UniProt Q9Y253); assay: qHTS for Inhibitors of Polymerase Eta: Confirmatory Assay for Cherry-picked Compounds (AID 720502); conditions: Pol eta primer extension, TAMRA/BHQ fluorescence, 10 min; further: potency means the concentration at half of the fitted maximal effect
Sequence of UniProt Q9Y253 (Q9Y253 whole entry, looked up): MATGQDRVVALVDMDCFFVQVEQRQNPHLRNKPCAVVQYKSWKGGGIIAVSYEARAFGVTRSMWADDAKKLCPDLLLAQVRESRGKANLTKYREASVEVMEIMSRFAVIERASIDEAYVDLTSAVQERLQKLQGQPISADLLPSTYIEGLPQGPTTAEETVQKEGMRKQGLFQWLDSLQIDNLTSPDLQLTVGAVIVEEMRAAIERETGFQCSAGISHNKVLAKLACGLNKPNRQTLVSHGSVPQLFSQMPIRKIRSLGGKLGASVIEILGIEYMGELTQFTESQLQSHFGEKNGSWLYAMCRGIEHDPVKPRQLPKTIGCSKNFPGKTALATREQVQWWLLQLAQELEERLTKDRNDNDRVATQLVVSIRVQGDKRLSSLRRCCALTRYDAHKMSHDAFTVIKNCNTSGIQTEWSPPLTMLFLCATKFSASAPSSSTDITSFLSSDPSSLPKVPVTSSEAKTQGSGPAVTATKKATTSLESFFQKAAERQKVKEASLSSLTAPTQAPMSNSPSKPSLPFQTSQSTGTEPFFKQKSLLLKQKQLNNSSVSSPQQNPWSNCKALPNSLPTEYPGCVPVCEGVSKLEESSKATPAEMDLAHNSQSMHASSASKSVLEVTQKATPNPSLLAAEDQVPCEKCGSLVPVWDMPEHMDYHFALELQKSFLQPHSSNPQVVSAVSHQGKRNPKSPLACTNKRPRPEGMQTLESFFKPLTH
Summary of the method: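 Pol eta 10 nM; substrate 50 nM final (unlabeled primer, TAMRA reporter, BHQ-2 template); preincub. 15 min RT; reads t=0 and t=10 min at ex525/em598.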

[8] = Stat Signaling Pathway (AID 446; active means well fitted curve in either direction with a large enough effect, not every such curve was filed as active; inconclusive means small, poorly fitted or top-dose-only effect, or another doubt;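 further: ME-180 cervical cancer cells given 40 pM IL-6 alongside compound; SIE-controlled beta-lactamase reporter measured as 460/530 nm FRET emission ratio; top concentration of the series differs between compounds; on the % scale 0 is the no-effect control and ±100 the full control effect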); conditions: ME-180 SIE beta-lactamase reporter, IL-6 stimulated, 5 h; at 7.69 µM (top of the series) unless noted
Summary of the method: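 Screening format detects activators and inhibitors alike: ME-180 SIE-bla cells stimulated at 40 pM IL-6 for 5 hrs with compound, then dual-emission beta-lactamase read at 405 nm excitation.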

[9] = target: Cytochrome P450 3A4 (Homo sapiens) (UniProt P08684); assay: qHTS Assay for Inhibitors and Substrates of Cytochrome P450 3A4 (AID 884); further: potency means the concentration at half of the fitted maximal effect; nearly all actives have a fitted effect of over 50% in size
Sequence of UniProt P08684 (P08684 whole entry, looked up): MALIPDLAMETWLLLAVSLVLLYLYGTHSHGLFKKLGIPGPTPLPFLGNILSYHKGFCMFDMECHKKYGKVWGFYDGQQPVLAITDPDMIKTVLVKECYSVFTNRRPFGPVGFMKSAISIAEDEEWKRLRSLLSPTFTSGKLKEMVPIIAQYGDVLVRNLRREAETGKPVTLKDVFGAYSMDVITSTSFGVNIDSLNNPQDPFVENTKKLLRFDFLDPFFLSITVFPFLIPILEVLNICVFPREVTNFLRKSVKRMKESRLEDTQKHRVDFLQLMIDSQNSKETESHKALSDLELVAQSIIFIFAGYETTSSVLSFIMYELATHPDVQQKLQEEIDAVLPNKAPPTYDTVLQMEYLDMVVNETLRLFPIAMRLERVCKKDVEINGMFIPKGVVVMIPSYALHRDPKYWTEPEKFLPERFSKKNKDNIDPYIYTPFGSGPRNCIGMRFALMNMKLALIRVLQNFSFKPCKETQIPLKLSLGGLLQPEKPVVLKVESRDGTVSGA
Summary of the method: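 20 nM human CYP3A4 with 25 uM Luciferin-PPXE (at KM) in 200 mM KPO4, preincubated 10 min with compound; NADPH regeneration started a 60 min RT reaction. Luciferin detected by luminescence, normalized to 57 uM ketoconazole as full inhibition.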

[10] = target: Tumor susceptibility gene 101 protein (Homo sapiens) (UniProt Q99816); assay: qHTS Assay for Iinhibitors of HIV-1 Budding by Blocking the Interaction of PTAP/TSG101: Hit Validation (AID 651600); further: potency means the concentration at half of the fitted maximal effect; nearly all actives have a fitted effect of over 70% in size
Sequence of UniProt Q99816 (Q99816 whole entry, looked up, the tested form may be a part): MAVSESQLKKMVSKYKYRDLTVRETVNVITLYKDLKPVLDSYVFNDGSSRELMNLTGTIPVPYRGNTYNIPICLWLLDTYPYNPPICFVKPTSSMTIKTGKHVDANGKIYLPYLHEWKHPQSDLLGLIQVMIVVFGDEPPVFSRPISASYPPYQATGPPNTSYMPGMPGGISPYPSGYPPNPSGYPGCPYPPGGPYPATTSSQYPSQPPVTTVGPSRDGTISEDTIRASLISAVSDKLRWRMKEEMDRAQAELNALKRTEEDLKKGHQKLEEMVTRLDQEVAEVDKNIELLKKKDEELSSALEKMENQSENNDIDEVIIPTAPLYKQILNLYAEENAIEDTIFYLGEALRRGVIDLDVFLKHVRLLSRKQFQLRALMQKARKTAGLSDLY
Summary of the method: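 Tsg101 binding domain 10 uM + FITC-PTAP peptide 50 nM (final), 10 mM HEPES pH 7.5/0.15 M NaCl/0.01% Tween 20/3 mM EDTA/0.1 mM TCEP; 20 min RT; FP read, FITC filters.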

[11] = target: Rap guanine nucleotide exchange factor 3 (Homo sapiens) (UniProt O95398); assay: Counterscreen qHTS for agonist of cAMP-regulated guanine nucleotide exchange factor 3 (EPAC1) (AID 1645889); conditions: EPAC1 Rap1B-BODIPY-GDP exchange, fluorescence; activation: at 154 µM (top of the series) unless noted; further: nearly all actives have a fitted effect of over 40% in size; further: potency means the concentration at half of the fitted maximal effect; on activation: % of control where 0% means no effect
Summary of the method: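 Measured: fluorescence of BODIPY-GDP bound to Rap1B, which falls as exchange proceeds. Conditions include 50 uM competing GDP, 5 and 30 min reads, and a later cAMP challenge for antagonist detection.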

[12] = qHTS Assay for Identification of Small Molecule Agonists for Hypoxia Response Element Signaling Pathway (AID 914; active means well fitted activation curve with a large enough effect in the signal ratio, with a control signal flat, not every such curve was filed as active; inconclusive means small, poorly fitted or top-dose-only effect, or effect the other way, or a change in a side signal; the % refers to the signal ratio; further: potency means the concentration at half of the fitted maximal effect); conditions: ME-180 (cervical carcinoma) HRE-bla reporter, beta-lactamase ratio, CoCl2, 17 h; activation: stronger effect = higher value
Summary of the method: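 qHTS titration; ME-180 HRE-bla cells; EC50 CoCl2 co-treatment, 17 h at 37 degrees Celsius; CCF4 dye, ex 405nm, em 460nm and 530nm; %Activity from ratio; AC50.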
Tags describe the fitted curve by direction and shape or compound fluorescence and quenching.

COc1ccc(-n2c(=O)c(-c3cccs3)nc3cnc(Nc4cccc(OC)c4)nc32)cc1
activity change, negative = inhibition [1]: inconclusive: -48.4% [inhibitor] [at 7.69 µM]
Potency [2]: inconclusive: 5.17 µM [partial curve]
Potency [3]: inconclusive: 5.01 µM [activator, partial curve]
Potency [4]: inconclusive: 56.1 µM [activator, partial curve, poor fit]
Potency [5]: inconclusive: 79.3 µM [activator, single point]

Cc1cc(NCc2ccco2)n2c(nc3ccccc32)c1C#N
Potency [4]: inactive
Potency [6]: inactive

COc1ccc(C(=O)c2ccc(Cl)cc2)c(OC)c1OC
Potency [4]: inactive
Potency [6]: inconclusive: 6.01 µM [inhibitor, partial curve, poor fit]

COc1ccc(-c2cc(=O)oc3c(O)c(O)ccc23)cc1
Potency [7]: inconclusive: 30.1 µM [inhibitor, full curve, poor fit]
Potency [4]: inactive
Potency [5]: inactive

COCCn1c(=O)c(-c2ccc(OC)cc2)nc2cnc(Nc3cccc(OC)c3)nc21
activity, negative = inhibition [8]: inactive: 3.6%
Potency [9]: inconclusive: 5.01 µM [inhibitor, full curve]
Potency [4]: active: 70.6 µM
Potency [5]: active: 70.6 µM

CC1CCN(c2ccc3c(c2)S(=O)(=O)c2ccccc2C3=O)CC1
Potency [10]: inconclusive: 46.1 µM [inhibitor, single point]
Potency [4]: active: 112 µM
Potency [5]: active: 100 µM
Potency [11]: inconclusive: 8.91 µM [activator, full curve]

O=C1CCC2CN3CCc4c([nH]c5ccccc45)C3CC2C1 (configuration not stated)
Potency [4]: inconclusive: 112 µM [activator, partial curve, poor fit]
Potency [6]: inactive
Potency [11]: inconclusive: 20 µM [activator, single point]

N#CCCn1c(=O)c(-c2ccc(Cl)cc2)nc2cnc(Nc3ccccc3)nc21
activity change, negative = inhibition [1]: inconclusive: -45.8% [inhibitor] [at 7.69 µM]
Potency [12]: inconclusive: 3.16 µM [fluorescent, side channel, single point]
Potency [4]: inconclusive: 79.3 µM [activator, single point]
Potency [5]: active: 79.3 µM

O=C1c2cccc3c(N4CCCCC4)ccc(c23)C(=O)N1c1cccc(O)c1
Potency [4]: active: 100 µM
Potency [6]: inconclusive: 75.7 µM [inhibitor, partial curve]
Potency [11]: active: 50.1 µM

O=C(C1CC1)N1c2ccccc2Sc2ccccc21
Potency [4]: inactive
Potency [6]: inconclusive: 42.6 µM [inhibitor, partial curve]

CCOC(=O)C1(Cc2ccccc2)C(=O)Nc2ccccc21 (configuration not stated)
Potency [4]: inactive
Potency [6]: inconclusive: 8.49 µM [inhibitor, partial curve, poor fit]

COC(=O)c1c(C)c2c(C)cc3ccccn3c-2c1C(=O)OC
Potency [4]: inconclusive: 89.1 µM [activator, partial curve, poor fit]
Potency [6]: inactive
Potency [11]: inconclusive: 15.8 µM [activator, partial curve, poor fit]

Brc1ccccc1Cn1c(-c2cncs2)nc2ccccc21
Potency [4]: inconclusive: 79.4 µM [activator, partial curve]
Potency [6]: inconclusive: 16.9 µM [inhibitor, partial curve, poor fit]
Potency [11]: inconclusive: 3.98 µM [activator, full curve, poor fit]

CCN(CC)c1ccc2cc(S(=O)(=O)c3ccc(Cl)cc3)c(=O)oc2c1
Potency [10]: active: 18.3 µM
Potency [4]: inconclusive: 100 µM [activator, partial curve, poor fit]
Potency [5]: active: 100 µM
Potency [11]: inconclusive: 8.91 µM [activator, full curve, poor fit]

CC1CCN(c2ccc3c(c2)S(=O)(=O)c2cccc(C(=O)NCc4cccc(F)c4)c2C3=O)CC1
Potency [10]: inconclusive: 46.1 µM [inhibitor, single point]
Potency [4]: inconclusive: 70.8 µM [activator, partial curve, poor fit]
Potency [5]: active: 112 µM
Potency [11]: inconclusive: 44.7 µM [activator, partial curve, poor fit]

O=C(O)c1cc(Cl)ccc1-c1ccc(/C=C/c2cc(C(F)(F)F)[nH]c(=O)n2)o1
Potency [7]: active: 37.9 µM
Potency [4]: inconclusive: 79.4 µM [activator, partial curve, poor fit]
Potency [5]: inconclusive: 5.62 µM [activator, single point]
Potency [11]: active: 12.6 µM

Cc1cccc(NC(=O)CN2C(=O)S/C(=C\c3ccc(O)c([N+](=O)[O-])c3)C2=O)c1
Potency [4]: inactive
Potency [6]: inactive

CCSc1nc(-c2ccccc2)nc2c1CCCC2
Potency [4]: inactive
Potency [6]: inconclusive: 16.9 µM [inhibitor, full curve]
activation [11]: inconclusive: 29.1% [activator]
